Reference: the RNAGym collection of RNA variant scans (doi:10.7554/elife.90254)
Read counts are not given, so values of variants with three or more changes are uncertain.

B1: LINE1-mini (parent)
chain: GGCAGAGCUCAACACAGCGUGGCAAAGUGGCUGUGGCUAGACUGCC

Variants of: B1
Experiment: self-cleavage, relative activity (ratio to wild type); higher = more cleavage; in vitro, sequencing; the parent is a self-cleaving ribozyme

Variant	self-cleavage
G1A A4G A41C	0.07
G1A A4G C18U G22U U34C	0.08
G1A A4G G5C	0.16
G1A A4G G22C G29U	0.1
G1A A4G U9A G19U C23U A24G U43A	0.05
G1A A4U A6C G19A U20C	0.77
G1A A4U A12C	0.13
G1A A4U C8U A24G G27C G33U G35U A41C U43C	0.13
G1A A4U C37A	0.07
G1A A4U G22U	0.21
G1A A4U G44A	0.07
G1A A6C A11C G19A C45A	0.06
G1A A6C C8G U28C	0.04
G1A A6C C10A G29A G35A	0.02
G1A A6C C15A C23U	0.08
G1A A6C C45A	0.3
G1A A6C C46U	0.24
G1A A6C U9A G17C G40C	0.25
G1A A6G A12U	0.03
G1A A6G C13G U20G C31U A41C C42G G44C	0.02
G1A A6G G19A C23G A24U A25C A39G	0.03

Variant	self-cleavage
G1A A6G G27A C31U	0.1
G1A A6U A12U G19A U32G	0.07
G1A A6U C10A	0.06
G1A A6U C10U C15G C18G G44U	0.04
G1A A6U C15U C23U	0.02
G1A A6U G19C	1.01
G1A A6U G21U G40U	0.38
G1A A11C C18U U28A	0.05
G1A A11C C46U	0.35
G1A A11C G22C G33U G35A	0.02
G1A A11G A12C A16G G35A	0
G1A A11G A12U A14G G22A	0.04
G1A A11G A24C U32G	0.03
G1A A11G C15U	0.07
G1A A11G C37A	0.03
G1A A11U A16G G40A	0.04
G1A A11U C13A G29U C31A A39U G44U	0.01
G1A A11U G17C C46U	0.31
G1A A11U G22A	0.87
G1A A11U G22A C46A	0.03
G1A A12C G17A G35C	0.03

Variant	self-cleavage
G1A A12C U28C G35C	0.04
G1A A12G C15A	0.07
G1A A12G G33C C46A	0.06
G1A A12G U20C A25C U28A A41G	0.01
G1A A12U A14C A16C U34A G35C U38G	0.01
G1A A12U A16G U20C G27U G35C C37G G40U	0.01
G1A A12U C13U G33U	0.09
G1A A12U C15A G17A	0.03
G1A A12U G17A C23A C31U	0.16
G1A A12U G19C G29A C31A	0.03
G1A A12U U34C G36A G44A	0.05
G1A A14C A26C	0.68
G1A A14C C15A A25U	0.08
G1A A14C C15G U20G G22A	0.06
G1A A14C C23G	0.07
G1A A14G A16U G21U C37G G40U C45U	0
G1A A14G A26C U43G	0
G1A A14G C15U G21U G29C G30C C37G	0.02
G1A A14G C18A A25U U38C U43G	0.02
G1A A14G G29U C37G	0.11
G1A A14G G33U	0.04

Variant	self-cleavage
G1A A14G U28C C31A G36U C46G	0.25
G1A A14U C45A	0.18
G1A A14U G21C G29C G36C	0.05
G1A A14U U20A C23A G36A	0.11
G1A A16C A24G G36C	0.02
G1A A16C A26G	0.06
G1A A16C G21A A41C	0.04
G1A A16G A25G G30C	0.02
G1A A16G C23U G33A	0.03
G1A A16G C46A	0.15
G1A A16G G22U C23U G35U	0.01
G1A A16G G40C	0.04
G1A A16U A25C G29A C42A	0.04
G1A A16U A25C G35U	0.2
G1A A16U C18A A26G G35A C46A	0.03
G1A A24C A25G	0.1
G1A A24C G30U U38G	0.02
G1A A24G G30U	1.51
G1A A24U A25U C31A	0.1
G1A A24U G27U G44C	1.6
